Experimental data published in PubChem BioAssay AID1508624 (National Center for Advancing Translational Sciences (NCATS), 2021).
In all, about 48,000 compounds went through this assay and about 120 (0.25%) were called active. Not shown: some 4% with an inconclusive outcome. Calls follow the shape of the dose curve; as a rule, active = well fitted activation curve with a large enough effect; inconclusive = small, poorly fitted or top-dose-only effect, or another doubt; inactive = no such curve, though single readings can be large or run the other way. The list shows a part of the results.

Experiment: Primary qHTS for Identification of Small Molecule Activators of Huntingtin-Antisense Promoter Activity; also: nearly all actives have a fitted effect of over 55% in size
Details: HEK293 HTT-AS promoter firefly luciferase reporter (activity 0% = vehicle and -100% = no light), 24 h; series mostly up to 57.5 µM; activity change, positive = activation: at the top concentration
Outline: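 HEK293 Fluc reporter, 2,500 cells/well, 24 h pre-culture; cpds up to 57.5 uM final, 24 h 37 degrees C; Dual-Glo, 10 min RT; normalized vehicle = 0%, zero RLU = -100%.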

Activity change, positive = activation, inactive:
CCc1c(CN2CCN(c3cccc(C)c3)C(C)C2)csc1C (stereo not given) -12.9%, CN(C)CCNC(=O)Cn1nc(N2CCN(c3ccccc3)CC2)ccc1=O -15.4%, CCOc1ccc(CC(=O)NCc2ccc3c(c2)CCN3C(C)=O)cc1OCC -13.5%, CC(C)(C)OC(=O)N1CCC(c2c(C(=O)N3CCN(c4ncccn4)CC3)cnn2-c2cccc(F)c2)CC1 13.5%, COc1ccc(NC(=O)CCc2nnc3n(CC(C)C)c(=O)c4ccccc4n23)cc1OC -1.01%, Cc1ccc(C)c(S(=O)(=O)c2nnn3c2nc(N2CCCCC2)c2sccc23)c1 -36.2%, Cc1ccc(O)c(NC(=O)COCc2cc(-c3ccco3)on2)c1 1.44%, COc1ccc(OC)c(NC(=O)Cn2cc(C(=O)c3ccc(Cl)cc3)c(=O)c3cc(OC)ccc32)c1 -27.1%, CC(=O)Nc1nonc1-c1nnc(SCc2ccccc2Cl)n1C -4.99%, COc1cc2c(cc1OC)n(CC(=O)c1ccc(C)cc1)c(=O)n1nc(CCn3nc(C)cc3C)nc21 -1.24%, COc1ccc(NC(=O)c2ccc3c(c2)CCN3S(=O)(=O)c2ccccc2)cc1 -17.1%, COc1ccc(-c2cc(C(=O)Oc3cccc(C)c3C)c3ccccc3n2)cc1 -6.18%, Cc1noc2ncnc(N3CCCC(C(=O)Nc4cccc(C(F)(F)F)c4)C3)c12 (stereo not given) -38.6%, CCc1ccc(NC(=O)c2ccc(F)c(S(=O)(=O)N3CCN(c4cc(C)ccc4C)CC3)c2)cc1 -28.1%, O=C1c2cccc(O)c2C(=O)c2c(O)cccc21 0.0892%, Cc1cc(C)c2c(=O)c3c(oc2c1)C(=O)N(Cc1ccco1)C3c1ccccc1F (stereo not given) -2.94%, Cn1cc(-c2cc3n(n2)CCC(=O)N3CCCC(=O)Nc2ccccc2F)c2ccccc21 -8.68%, COc1ccc(-c2nc(S(=O)(=O)c3ccc(C)cc3)c(NCc3ccccc3)o2)cc1 0.363%, CCc1c(C)c(C#N)c2nc3ccccc3n2c1Nc1cccc(C(F)(F)F)c1 -25.8%, CCc1cccc(NC(=O)C(CC)n2nc(C)c3sc4ccccc4c3c2=O)c1 (stereo not given) -10.8%, COc1ccc(NC(=O)c2sc3nc4c(cc3c2N)CN(Cc2ccccc2)CC4)cc1OC -8.42%, Cc1noc(-c2ccc(-c3noc(-c4ccc(C(F)(F)F)cc4)n3)cc2)n1 -2.62%, CC(C)c1ccc(NC(=O)C(Cc2ccccc2)NS(=O)(=O)c2ccc3c(c2)oc(=O)n3C)cc1 (stereo not given) -11.6%, COc1ccc(Nc2nc(-c3ccccc3F)nc3ccccc23)cc1OC -14.5%, O=C(NCCCN1CCN(c2ccc(F)cc2)CC1)c1ccc2nc(CCc3ccccc3)oc2c1 -19.9%, Cc1ccc(N2CC(C(=O)NCc3nnnn3-c3ccc(C)c(C)c3)CC2=O)cc1 (stereo not given) -6.94%, COC(=O)c1ccc(Cn2c(SCC(=O)Nc3ccc(F)cc3)nc3ccccc32)cc1 -21%, O=c1cc(N2CCOCC2)oc2c(-c3ccccc3)cccc12 -5.87%, CCCCN(CC)Cc1ccc(CNS(=O)(=O)c2cc3c(cc2Cl)NC(=O)CO3)o1 -15.6%, CCOc1ccc(NC(=O)Cn2c(=O)n(Cc3ccc(C(=O)NCc4ccc5c(c4)OCO5)cc3)c(=O)c3ccccc32)cc1 -6.07%, CCCCOc1ccc(C(=O)Nc2ccc3c(c2)CCCN3S(=O)(=O)c2ccc(C)cc2)cc1 -17.2%, O=C(NCc1ccccn1)c1nn(-c2ccccc2F)nc1CO -39.2%, COc1cc(CN2CCN(S(=O)(=O)c3ccc(F)cc3)CC2)cc(OC)c1OC -23.5%, Fc1ccccc1C1=NC(c2ccc(C(F)(F)F)cc2)=Nc2ccccc2N1 -20.6%, CCOc1ccccc1CN1CCc2nc(Nc3ccccc3)ncc2C1 -12.4%, COC(=O)c1cc(OC)c(OC)cc1NC(=O)c1ccc2c(c1)CCN2S(=O)(=O)c1ccccc1 9.23%, Fc1ccc(-n2ncc3c(N4CCN(Cc5ccccc5)CC4)ncnc32)cc1 26.8%, COc1ccc(OC)c(CCNC(=O)CN2C(=O)COc3ccc(S(=O)(=O)N4CCCCCC4)cc32)c1 -22.2%, COc1cccc(CNC(=O)CSc2n[nH]c(-c3ccccc3Cl)n2)c1 -5.66%, Cc1ccc(C)c(Cn2cnc3ccccc3c2=O)c1 -21.6%, COc1cccc(CNC(=O)CCNS(=O)(=O)c2ccc3c(c2)CCCC(=O)N3)c1 -10.1%, CC1=C(C(=O)Nc2ccccc2)C(c2cccs2)n2nc(SCc3ccccc3)nc2N1 (stereo not given) -4.91%, O=C(Nc1c2c(nn1-c1ccc(Cl)cc1)CS(=O)(=O)C2)c1cccc(Cl)c1 -43.5%, O=C(CSc1ccc2nnc(CCNS(=O)(=O)c3ccccc3)n2n1)Nc1ccccc1C(F)(F)F -22.4%, CCc1cccc(NC(=O)CN2c3ccccc3S(=O)(=O)c3ccccc32)c1 -13.6%, CC(=O)N1c2ccc(S(=O)(=O)NCCC(=O)Nc3ccc(C)cc3Br)cc2CC1C (stereo not given) -21.8%, Cc1ccc(CNC(=O)Cn2ccn(-c3cc(C)cc(C)c3)c(=O)c2=O)cc1 -5.56%, COc1ccccc1NC(=O)Cn1nc(C)n2cccc2c1=O -3.02%, COc1ccc(OC)c(NC(=O)c2cc3cc4ccc(C)cc4nc3s2)c1 13.1%, Cn1ccc2cc(S(=O)(=O)N3CCN(C(=O)Nc4ccccc4F)CC3)ccc21 1.35%, Nc1nc(N)c(S(=O)(=O)c2ccccc2)c(Nc2ccc(F)cc2)n1 -28.9%, CCOC(=O)c1c(Nc2cccc(C)c2)nnc(-c2ccccc2)c1-c1ccccc1 -46.9%, CCOC(N)=O 1.67%, O=C(CSc1nc2ccccc2nc1Cc1ccccc1)N1CCCc2ccccc21 -23.6%, COc1cc(-c2ccno2)ccc1S(=O)(=O)N1CCN(c2ccc(F)cc2)CC1 -36%, CCc1ccc2occ(CC(=O)N(Cc3ccc(N(C)C)cc3)C3CCS(=O)(=O)C3)c2c1 (stereo not given) -17.9%, CCOC(=O)N1CCC(NC(=O)c2ccc3c(c2)N(Cc2ccc(Cl)cc2)C(=O)c2ccccc2S3=O)CC1 (stereo not given) -39.8%, Cc1cccc(N(C)S(=O)(=O)c2nnc(NC(=O)C3CCCCC3)s2)c1 -19%, CCOc1ccc(NC(=O)Cn2c(=O)cc(C)c3c(C)nn(-c4ccc(CC)cc4)c32)cc1 11.6%, COc1ccc(C(=O)Nc2ccccc2C(=O)OCc2cc(=O)n3nc(C4CC4)sc3n2)cc1 15%, CCOC(=O)N1CCc2c(sc3c2c(=O)n(-c2ccc(CC)cc2)c(=O)n3Cc2cc(C)ccc2C)C1 -5.89%, CCOC(=O)c1c(C)oc2nc(C)nc(Nc3cc(C)ccc3OC)c12 -1.3%, CCOc1ccccc1NC(=O)C1CCCN(S(=O)(=O)c2cn(C)cn2)C1 (stereo not given) -9.2%, CC(C)c1ccc(/C=C(\C#N)c2nc(-c3ccc(O)cc3)cs2)cc1 -20.1%, CCc1nnc(NC(=O)CSc2nc3c([nH]c4ccccc43)c(=O)n2-c2ccc(OC)cc2)s1 -20.4%, O=C(C1CCCCC1)N(Cc1cccnc1)c1nc2ccc(F)cc2s1 -14.8%, Cc1cccc(CS(=O)(=O)Cc2ccc(C(=O)NCc3ccc(Cl)cc3)o2)c1 -29.9%, CCCCC12CN3CC(C)(CN(C1)C3c1c(C)[nH]c(=O)[nH]c1=O)C2=O (stereo not given) 10.3%, COc1ccc(-c2cccc(NS(=O)(=O)c3cc(C)c(Cl)cc3C)c2)nn1 -51.8%, CCN(CCCNC(=O)c1nn(-c2ccc(OC)cc2)c(=O)c2c1c1ccccc1n2C)c1cccc(C)c1 -5.13%, Cc1cccc(Cn2c(C)c(C)c3cc(C(=O)NCc4ccc(C)o4)ccc32)c1 -29.8%, Cc1cc(NC(=O)CN(C)S(=O)(=O)c2ccc3c(c2)CCC(=O)N3)ccc1Br -5.54%, CCOc1ccc(NC(=O)CN2C(=O)C(c3ccccc3)=NC23CCCCCC3)cc1 -18.5%, CCOc1ccc(CCNC(=O)c2cc3c(-c4cccc(OC)c4)nn(C)c3s2)cc1OCC -11%, CCC(C(=O)NCCc1ccc(Cl)cc1)n1nc(C)c2c(C)n(-c3ccccc3)nc2c1=O (stereo not given) -30.2%, Cc1nc2nc(SCC(=O)NC(C)c3ccccc3)nn2c(C)c1Cc1c(F)cccc1Cl (stereo not given) -13.1%, CCOc1ccc(CN2C(=O)c3ccccc3Sc3ccc(C(=O)NCc4ccc(C)cc4)cc32)cc1 -14.2%, COc1cccc(CSc2nc3n(n2)C(c2ccccc2C)C(C(=O)Nc2ccccc2OC)=C(C)N3)c1 (stereo not given) -13.7%, O=C(CSc1oc(-c2ccco2)nc1S(=O)(=O)c1ccc(Cl)cc1)c1ccccc1 -7.49%, Cc1cccc(C(=O)Nc2ccc(N3CCC(CCN4CCOCC4)CC3)c(C(=O)O)c2)c1 -5.97%, O=C(Nc1ccc(S(=O)(=O)N2CCC(c3nc4ccccc4s3)CC2)cc1)c1ccccc1F -9.7%, CCN(C(=O)NCc1noc2ccccc12)c1cc(C)ccc1C -22.9%, CCOC(=O)c1nc(Nc2cccc(C)c2)c2ccccc2n1 -25.1%, CCCCCOc1ccc(C(=O)N(Cc2ccccc2)C2CCS(=O)(=O)C2)cc1 (stereo not given) -27.4%, Cc1ccc2nc(/C(C#N)=C/c3ccc(-c4cccc(Cl)c4)o3)[nH]c2c1 -16.7%, CCOc1ccc(CNC(=O)CCn2cccn2)cc1OC -6.73%, CCCn1c(=O)c2sccc2n2c(CCCC(=O)NCCOC)nnc12 -4.57%, CN(C)c1ccc(CN(CC2CCCO2)C(=O)COc2ccc(Cl)cc2)cc1 (stereo not given) -21.2%, CCc1ccc(-n2c(C)nc3cc(C(=O)NCCc4ccccc4)ccc32)cc1 -14.9%, COc1ccccc1NC(=O)CSc1ncc2c(n1)-c1cc(Cl)ccc1N(C)S2(=O)=O -27.3%, Cc1nc(N2CCCC2)ncc1C(=O)Nc1ccccc1 1.45%, CC(C)CC(=O)Nc1ccc(C(=O)OCc2cc(=O)n3nc(C4CCCCC4)sc3n2)cc1 -1.6%, COc1cccc(CN2C(=O)c3ccccc3C2C(=O)NCCc2ccc(OC)c(OC)c2)c1 (stereo not given) -11.4%, CC(=O)N1CCCc2cc(S(=O)(=O)N3CCCC(C(=O)NCc4ccc(Cl)cc4)C3)ccc21 (stereo not given) -66.2%, Cc1cc(O)c(C(c2cccc(Cl)c2)N2CCN(c3ccccc3)CC2)c(=O)n1Cc1ccco1 (stereo not given) 3.7%
